This is an account of results in ChEMBL document CHEMBL4888484, “Replenishing the malaria drug discovery pipeline: Screening and hit evaluation of the MMV Hit Generation Library 1 (HGL1) against asexual blood stage Plasmodium falciparum ,using a nano luciferase reporter read-out” (2022).

Screen size: about 150,000 compounds; about 540 (0.36%) showed an effect of 50% or more. This is one part of the list.

For orientation: % Inhibition means the change of the read-out against control, counted positive when it falls.

This assay has as its system Plasmodium falciparum. Briefly: Primary screen in NF54 nanoGlo assay, in single point, at 2uM, 72h; a lower Z score goes with more inhibition. The conditions noted are these: timepoint 72 hour. Type of assay: functional, Erythrocyte.
Consider `CC1=NS(=O)(=O)N(C)C=C1C(=O)OCc1cc(F)ccc1F`, for which the “% Inhibition” value is listed as -8% and the Z score is 1.47.
The corresponding values for `O=C(NCC1(c2cccc(F)c2)CCCCC1)N1CCC[C@H](O)C1` are -14% and 2.55.
The matching figures for `CN1N=C(C(=O)N(C)C2CCCCC2)CCC1=O`: -13% and 1.13.
`COCCCNC(=O)c1cn(C)c2c(c(C)nn2-c2ccc(F)cc2)c1=O`: the “% Inhibition” value is on record as -3% and the Z score is reported as 0.51.
The matching figures for `Cc1ccc(C)c(Cn2nnc(C(=O)NCc3ccco3)c2N)c1`: -7% and 0.94.
The matching figures for `C[C@H]1CN(C(=O)NCc2ccc(F)cc2)C[C@@H]1c1nc(-c2cccnc2)no1`: -8% and 0.92.
The corresponding values for `CC(C)C(=O)Nc1cnn(-c2ncncc2N2CCCCC2)c1` are -7% and 0.8.
`CN1C[C@H](O)C[C@H]1c1nc(Cc2ccccc2)no1`: the “% Inhibition” value is 2% and the Z score is -0.27.
The matching figures for `CC1CCCC2CCCN(C(=O)C3CCNC(=O)C3)C12` (stereo unspecified): -8% and 0.97.
The corresponding values for `COc1cc(C(=O)NCC2(C)CCCCCC2)on1` are -5% and 0.52.
With `O=C1N[C@@H](Cc2ccccc2)C(=O)N1CCN1CCOCC1`, the “% Inhibition” value is on record as -10% and the Z score is on record as 1.25.
As to `Cc1ccc(C2(CN(C)Cc3noc4c3CCCC4)CCNCC2)nc1`, the “% Inhibition” value is reported as -5% and the Z score stood at 0.49.
The corresponding values for `CC(CC(=O)C(C#N)c1ccc(C(F)(F)F)cn1)c1ccccc1` (stereo unspecified) are -1% and 0.08.
The corresponding values for `CN(C1CCCC1)S(=O)(=O)c1ccc2c(c1)OCCCO2` are -9% and 1.33.
Regarding `O=C(CCc1ccc(=O)[nH]c1)Nc1cccc(-c2ccc3c(c2)CCO3)n1`, the “% Inhibition” value was 0% and the Z score is on record as -0.05.
The matching figures for `COc1ncccc1C(=O)N1CCn2nc3c(c2C1)CCC3`: 11% and -1.35.
The matching figures for `Cn1cc(CCNC(=O)N[C@H]2CCCN(c3ccccc3F)C2)cn1`: -10% and 1.35.
The corresponding values for `OCc1ccccc1-c1ccnc2c1CCCC2` are 2% and -0.18.
Turning to `C[C@@H](CN1CCOCC1)C(=O)NCC1(CO)CCCC1`, the “% Inhibition” value was -3% and the Z score is 0.53.
The corresponding values for `O=C(NC[C@H](O)C(F)(F)F)c1cc(O)ccn1` are -1% and 0.17.
On to `CCC(CC)n1nc(Nc2nccnc2C#N)cc1C`, for which the “% Inhibition” value is 7% and the Z score is -0.97.
With `Cc1cc(-c2cc(O)cc(CC[C@H]3CCCCN3)c2)cnc1-n1cnnc1`, the “% Inhibition” value is reported as 6% and the Z score is reported as -1.11.
The matching figures for `O=C(CN1CCCCCC1)N[C@H]1CCN(Cc2ccccc2)C1`: -4% and 0.79.
The corresponding values for `c1ccc(CN2CC(c3nc(Cc4cccnc4)no3)C2)nc1` are -3% and 0.42.
The matching figures for `C[C@H](c1nc(COCc2ccccc2)no1)C1CC1`: 0% and 0.01.
In the case of `NC(=O)N1CCC[C@H]1C(=O)NC1(C2CCCC2)CC1`, the “% Inhibition” value is listed as -1% and the Z score came out at 0.1.
The matching figures for `CN(Cc1ccc(Oc2ccccc2)o1)C[C@H](O)C1CC1`: -4% and 0.65.
The corresponding values for `NC(=O)c1n[nH]c2ccc(NC(=O)c3nn(-c4ccccc4)c(=O)c4ccccc34)cc12` are -3% and 0.31.
The corresponding values for `COc1ccc2c(CN3CCC(OCc4cccnc4)CC3)n[nH]c2c1` are -5% and 0.93.
As to `CC(C)(C)[C@H]1CCN(c2nnc(CS(C)(=O)=O)n2CC2CC2)C1`, the “% Inhibition” value is given as -15% and the Z score was found to be 2.64.
The matching figures for `COCCN(CCOC)C(=O)c1nc(-c2ccccc2)nc2c1OCO2`: 8% and -1.02.
The matching figures for `O=C(c1cc(-c2ccccc2)n[nH]1)N1CCC(N2CCc3sccc3C2)CC1`: 33% and -5.14.
The matching figures for `Cc1nn(C(C)(C)C)c2nc(C3CC3)cc(C(=O)N(C)Cc3ccc4c(c3)OCO4)c12`: -1% and 0.15.
For the compound `CCC[C@H](C)N1CCC(n2cc(CN3CCCCCC3)nn2)CC1`, the “% Inhibition” value is reported as -14% and the Z score is reported as 1.96.
The corresponding values for `COc1ccc(-c2cn(CCN3CCc4ccccc43)nn2)cn1` are -7% and 0.93.
The matching figures for `Cc1cccc2c1OCC[C@@H]2NC(=O)c1ccc(-c2ncn[nH]2)cc1`: -5% and 0.87.
For the compound `C[C@H](NC(=O)c1nccs1)c1ccc(OC(F)(F)F)cc1`, the “% Inhibition” value is -9% and the Z score is reported as 0.84.
As for `Cc1ccc(CN(C(=O)c2ccn3nnnc3c2)C2CCCC2)s1`, the “% Inhibition” value is -2% and the Z score stood at 0.3.
The corresponding values for `CN(C)c1ccc(C(=O)N2C[C@@H]3CC[C@H]2CN(S(=O)(=O)N(C)C)C3)cc1` are -17% and 1.52.
The corresponding values for `O=C(CCc1ccccc1)Nc1ccc(N2CCN(c3ccccc3F)CC2)c(S(=O)(=O)NCc2ccc3c(c2)OCO3)c1` are 4% and -0.67.
The corresponding values for `O=C(Cc1ccn[nH]1)NCc1ccc(Cn2ccnc2)cc1` are 29% and -3.84.
Take `Cc1c(Cl)cccc1N1CC[C@@H](C(=O)Nc2cccc(Cl)c2)C1=O`: the “% Inhibition” value is 2% and the Z score is given as -0.41.
Take `Cc1cccc([C@H]2CCCN(C(=O)Nc3ccc(N4CCCC4=O)cc3)C2)c1`: the “% Inhibition” value is listed as 1% and the Z score is recorded as -0.18.
